Reference: the supplement of paper PMC3724861
The list shows a part of the results.

test system: T1, Caupolican (Caup) homeodomain DNA-binding domain; experiment: PBM E-score (8-mer, recovered from the published 9-mer minima) (E-score (dimensionless, -0.5 to 0.5)); Drosophila protein; higher = stronger relative binding preference, active = 0.31 or more
T1 sequence: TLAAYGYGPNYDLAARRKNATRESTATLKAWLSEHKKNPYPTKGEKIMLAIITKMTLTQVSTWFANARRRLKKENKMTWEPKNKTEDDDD
Procedure, shortened: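 Caup's homeodomain DNA-binding domain (residues 214-303) was made by in vitro transcription and translation and applied at 100 nM to custom-designed protein binding microarrays. Each value is an enrichment score that gives relative binding preference for a short DNA word, with higher meaning stronger. The 8-mer values were recovered from published 9-mer scores, each of which was the minimum of its two constituent 8-mer scores. A cutoff of 0.31 marks candidate sites.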

PBM E-score, inactive:
CTGGCCGA -0.224, GTACTGAA 0.126, ACAATGGC 0.0838, AAGCAGTA 0.00217, CACCTAAA 0.0144, GCGTAGCC -0.154, CATGGTCA 0.145, CGAGATCC -0.0366, ACAAGCTG 0.2, AGGAGGTG -0.0888, CAAGCGCG -0.0994, GGCTAATA 0.0405, AGAAAGGG -0.122, CGCTTTGC -0.0868, GTCTTCTA 0.00178, CACACGCC -0.0239, CTAATTCC 0.114, AGTCACGG -0.0412, AGGCGCAT -0.0417, GTCAAGAA 0.0535, ATTGTGAC 0.125, ATTTAAAA 0.0428, CGCACACG -0.117, GGGACCTA -0.169, AATCAAGG -0.0667, CTAGCAGA -0.018, CCCAAGTA -0.126, CCCGGCAC -0.152, GTACGCAA 0.106, GCAGTTTA 0.00229, CTGAGGGA -0.138, AACCATAA 0.103, ACCGCACC -0.127, TAGAAGCA -0.00473, AGGTGTTG 0.125, TCATTCAA 0.0654, GTGTCGGA 0.204, GGAGTGAA -0.0468, AGCTGAAG -0.0859, AGCACCGC -0.176, CGAACCTC -0.0651, CAGCCTTA -0.0523, AAGTGGAA 0.0309, CAATAATA 0.182, CCCAAACC -0.207, CCGCTATC -0.126, CTCTGCAC -0.107, AATACGCC -0.0369, AAAGCACT 0.0422, GGATTTGA -0.0346, CGTCCCCA -0.168, CCTATACA 0.176, CACGGTGC -0.0185, CCATCGCC -0.211, ACGACCCG -0.0769, ACGGGGGA -0.194, GGGAATAA 0.00766, ATAAAAAG 0.112, AAAGCGAC 0.033, ATCGGTCA -0.00776, CATTATCG 0.109, CTGGTGAA 0.0261, ACGGAACC 0.105, CTACGTAC 0.144, GAATAATA 0.151, GACGGTTA -0.0833, AGCCTAGG -0.191, AATTCGGT 0.0391, ACCTTAAA -0.0366, AGGTTTTC 0.0417, ACAGATAC 0.201, GTACAGCA 0.148, GGCATCAC -0.0612, GGTATCAC 0.0523, ACGATTGC 0.116, ACTTAATC 0.0653, CTGTATAC 0.246, GTCAGTCA 0.0572, GTCACCTA -0.00573, GCGCTGAC -0.0973, CTATTTTC 0.101, CGAGGAAA -0.0474, ATGACGGC -0.128, CTGCACCC -0.126, ATATTCCA 0.0978, CATCCCAG -0.082, CATAGTGA 0.155, CGCAGACA 0.0571, ACCGAGCT -0.0939, GGATGCCC -0.163, CTAGGTAC 0.127, CATATACA 0.298, ATAACTCC -0.0329, AAATCCTC -0.0384, TCGTTGAA 0.0743, ACTTGTGC 0.0346, CAAAGAGA -0.0852, AAAAGTCA 0.0226, CGCTAAAG -0.087, AAGGTACA 0.274, CAGCAGAG -0.189, AAGCGTCC -0.109, AGATATGC 0.0723, CTTTACAC 0.289, GCTGGCCC -0.316, AAGCATAT 0.105, AACCTTCA 0.0236, AGGAGTTG 0.0303, CAAAGCCC -0.185, ACGTGGAC -0.0344, CGGCTAGA -0.124, CTGGTCAC 0.00982, CGCATATC 0.0383, CAGGCTAC -0.0229, CATGATCG 0.13, CCACACCC -0.126, GCCCCAGA -0.266, AAGTCTAC 0.0118, CCGCACTC -0.162, ATAAATTC 0.122, AACAAGGT 0.293, CAGGCAAC -0.0298, CATAACTC 0.0504, AATATACG 0.115, GCAATAAA 0.0712, CGTGTCGA 0.281, AGCCTACC -0.166, CTCCCACA -0.12, ACACGGGA 0.275, CAATTTGG -0.00673, AACCGACA 0.167, CGTACCGC -0.16, AAATGGAG -0.0805, GGCCTTCA -0.181, CACGTATG 0.0879, CGGAATCA -0.0166, GCCCGGGA -0.252, CCCCGCGC -0.241, CTATGGGC -0.163, ACCACCCT -0.0681, AACACTTC 0.141, GCACCAGC -0.218, GCCGCTCA -0.182, GTAAACTA 0.149, CGGCCCTA -0.157, GTGTTCCA 0.181, CCAAGTTC -0.123, ATTAGGAC 0.0684, TCTTACAA 0.246, GTTAATCA 0.187, CAACGAAA 0.103, ACGGGAGG -0.175, ACAGTTAA 0.155, ACGCCCTA -0.214, AGCCGTGA -0.117, AGTTGCGG -0.048, GAAAACAC 0.166, AGTCAACG 0.0361, AGTTAATC 0.0623, ATGGAACG 0.0259, CTTAGTAC 0.182, AGAGGTGA -0.0361, ATCCAGAC -0.00977, GCACCAAA -0.0494, AATAGATT 0.102, CACCCTAG -0.0221, CGATTAAG 0.0411, ACGACAGC 0.104, CGTATAAG -0.0701, ATCTGACG -0.0369, ATAATGTG 0.19, ATCGCATG 0.184, GCGAGCGA -0.156, ACCCTCAG -0.121, AAGATACT 0.0544, AATGTGGC -0.0429, GAGTTACA 0.215, CATATGAC 0.117, ATATTCTC 0.117, CCCATCCG -0.202, CATTATGC 0.0714, AGTGAAAC 0.108, GGGACACA 0.133, CCCATATA 0.0107, CCTCGAAC -0.0679, CTCTCGGA -0.171, CATCACCG 0.00939, CGGATCTC -0.0187, CATATAAA 0.188, TCTGAAAA 0.0272, ATGCAAAA 0.14, GAGCCACC -0.23, GCACTTCA 0.0194, CATCATGC 0.1, GTAAGCCA -0.0677, ATCCATCC 0.00203, ACAAGGTC 0.298, AAGTCCAT -0.00371, GACGCAAC -0.0658, ATTTCTTG 0.0522, CCCTGTAC 0.158, AACCCAAT 0.0564, CAACCCAC 0.00396, GTTAAGAA 0.02, AGCTAGTG 0.00687, ATTCACGG -0.0261, CCTCGTGA -0.128, GCGGAGAA -0.116, TGTTATAA 0.284, AATGGACA 0.204, CCTGTCTA 0.0989, CCGCTCGA -0.155, AACCGAAC -0.001, CGCAAGTA 0.125

PBM E-score, ≥ -0.0166:
AAGCGGAA

PBM E-score, ≥ -0.00144:
AGAGTCTA

PBM E-score, active:
ACAAGGAT 0.315, ATACACAT 0.311, GCTTGTCA 0.352

PBM E-score, ≥ 0.0809:
AACGGTGC

PBM E-score, ≥ 0.144:
ACCGGACA

PBM E-score, ≥ 0.111:
ATCGAGAA

PBM E-score, ≥ -0.0218:
ATCGGCAC

PBM E-score, ≥ -0.0895:
ACTGGGCC
